The values that follow come from PMC4336329 (PLoS ONE, 2015).

Molecules are shown by their SMILES. Among all 310,000 compounds or so, about 2,200 (0.71%) showed an effect of 50% or more. The effect is printed as a negative number. The list shows a part of the results.

Sequence of human ether-à-go-go-related gene (hERG) potassium channel (Q12809 whole entry, looked up): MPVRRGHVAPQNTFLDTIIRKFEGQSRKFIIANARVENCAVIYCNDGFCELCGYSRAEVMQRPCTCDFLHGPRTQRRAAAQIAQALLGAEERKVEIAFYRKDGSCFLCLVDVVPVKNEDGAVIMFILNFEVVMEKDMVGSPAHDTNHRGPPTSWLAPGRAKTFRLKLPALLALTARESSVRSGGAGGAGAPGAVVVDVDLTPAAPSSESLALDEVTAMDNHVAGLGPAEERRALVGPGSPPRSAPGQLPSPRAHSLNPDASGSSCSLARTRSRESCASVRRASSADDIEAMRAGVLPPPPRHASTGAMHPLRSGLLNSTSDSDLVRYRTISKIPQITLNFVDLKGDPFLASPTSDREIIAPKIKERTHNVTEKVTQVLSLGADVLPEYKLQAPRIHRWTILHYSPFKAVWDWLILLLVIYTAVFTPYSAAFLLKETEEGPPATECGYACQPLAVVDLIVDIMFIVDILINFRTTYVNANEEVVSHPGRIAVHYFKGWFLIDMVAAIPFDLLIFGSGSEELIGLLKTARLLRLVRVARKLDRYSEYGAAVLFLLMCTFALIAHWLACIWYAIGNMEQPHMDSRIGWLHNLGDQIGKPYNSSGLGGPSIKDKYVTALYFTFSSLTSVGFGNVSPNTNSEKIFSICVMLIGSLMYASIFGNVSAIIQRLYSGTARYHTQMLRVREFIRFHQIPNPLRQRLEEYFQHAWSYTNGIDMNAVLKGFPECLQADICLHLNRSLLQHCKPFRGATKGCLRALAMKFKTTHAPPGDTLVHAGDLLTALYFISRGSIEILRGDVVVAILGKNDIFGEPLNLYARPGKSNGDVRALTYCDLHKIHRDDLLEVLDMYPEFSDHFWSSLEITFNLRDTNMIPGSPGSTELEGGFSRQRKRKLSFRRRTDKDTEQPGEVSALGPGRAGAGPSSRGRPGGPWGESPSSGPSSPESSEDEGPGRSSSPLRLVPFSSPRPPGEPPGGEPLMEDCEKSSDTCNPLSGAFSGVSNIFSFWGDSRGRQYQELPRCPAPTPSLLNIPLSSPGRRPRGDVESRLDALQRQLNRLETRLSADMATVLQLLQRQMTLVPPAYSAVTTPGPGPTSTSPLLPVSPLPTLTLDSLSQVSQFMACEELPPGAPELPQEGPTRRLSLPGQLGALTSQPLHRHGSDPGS

This assay addresses human ether-à-go-go-related gene (hERG) potassium channel (human, UniProt Q12809). Nature of the assay: primary screen, population patch clamp on CHO cells stably expressing hERG.
On to `COc1cc(CN2CCCC(CO)(Cc3ccccc3)C2)ccc1O` (stereo not drawn), for which the “hERG current change (%, negative = inhibition) at 1uM” value came out at 12.4%. For `CCn1c(SCC(=O)Nc2cc(OC)c(OC)c(OC)c2)nnc1-c1cccs1` the value was 9.28%; for `CCOC(=O)c1nn(-c2cccc(OC)c2)c2nc(CC)c(C#N)c(=O)n12`, 8.47%; for `CCOC(=O)CSc1nc(C2CC2)nc2ccccc12`, 6.23%. As for `CNC(=S)NCCC(c1ccccc1)c1ccccc1`, the figure is 8.57%. As for `NS(=O)(=O)c1cccc(NC(=O)CC23CC4CC(CC(Br)(C4)C2)C3)c1`, the “hERG current change (%, negative = inhibition) at 1uM” value is on record as 9.12%.

For `O=P(c1ccccc1)(c1nc2ccccc2s1)N1CCOCC1` (stereo not drawn), the “hERG current change (%, negative = inhibition) at 1uM” value is recorded as 20.6%. In the case of `COc1ccc(S(=O)(=O)NC(C)C(=O)NCc2ccccn2)cc1OC` (stereo not drawn), the “hERG current change (%, negative = inhibition) at 1uM” value was determined as 15.4%. For `CCCCCN(C(=O)NC(=O)Nc1ccc(C)cc1C)S(C)(=O)=O` the value was 5.7%. As for `CCOc1ccc(Nc2c3c(nc4ncnn24)CC(C)CC3)cc1` (stereo not drawn), the figure is -0.939%. As for `CCN=c1scc(C)n1/N=C/c1cc(Br)c(O)c(Br)c1`, the figure is 10.3%; as for `CC1(OC(=O)C2CCCC2)C(=O)C=C2C=C(c3ccsc3)N(C3CCCCC3)C=C2C1=O` (stereo not drawn), 2.05%; as for `CC(C)C/C(=N/O)c1c[nH]c2ccccc12`, 1.54%. With `CCNC(=O)NC(=O)COC(=O)c1ccccc1SCC(=O)NC(=O)NCC`, the “hERG current change (%, negative = inhibition) at 1uM” value amounted to 7.04%. As for `CCOP(=O)(NC12CC3CC(CC(C3)C1)C2)NC12CC3CC(CC(C3)C1)C2`, the figure is 9.83%. Regarding `Cc1ccccc1OCCN1CCCC1`, the “hERG current change (%, negative = inhibition) at 1uM” value turned out to be 15%. For `COc1cccc(NC(=O)N2CCC(NC(=O)C3CCCCC3)CC2)c1` the value was 14.8%; for `Cc1ccc(-c2nc(N/N=C/c3cccc([N+](=O)[O-])c3)c3ccccc3n2)cc1`, 8.86%; for `C/C(=N/NC(=O)CNS(=O)(=O)c1ccc(C)cc1)c1cccc([N+](=O)[O-])c1`, 11.2%. For `C=CCOC(=O)Nc1c(C(=O)OC)[nH]c2ccc(Cl)cc12` the value was 16.8%.

For the compound `CC1CN(c2ccccc2)CCN1Cc1nc(Cc2ccccc2)no1` (stereo not drawn), the “hERG current change (%, negative = inhibition) at 1uM” value is reported as 9.72%. For `CCOC(=O)C1C2C=CC3(CN(c4ccc(Cl)c(F)c4)C(=O)C13)O2` (stereo not drawn) the value was 6.9%.

For the compound `O=C(CCl)Nc1cccc(Oc2cnccn2)c1`, the “hERG current change (%, negative = inhibition) at 1uM” value is on record as 9.26%. For `O=S(=O)(NC(=NCc1ccccc1)c1ccccc1)c1ccccc1` the value was 15.2%; for `COc1cccc(CN2CCN(S(=O)(=O)c3ccccc3)CC2)c1OC`, 8.69%. As for `CCOc1ccc2[nH]c(C(=O)N/N=C/c3cc(OC)c(OC)c(OC)c3)cc2c1`, the figure is 16.6%. For `Cc1cc(Cl)ccc1OCCCC(=O)NCc1cccs1` the value was 3.76%. Turning to `CNC(C(=O)c1ccccc1)C(OC)c1ccccc1.[O-][Cl+3]([O-])([O-])O` (stereo not drawn), the “hERG current change (%, negative = inhibition) at 1uM” value was 9.94%.

On to `Cc1nn(C)c(C)c1CN(C(=O)CCc1nnc(Cc2c[nH]c3ccccc23)o1)C(C)C`, for which the “hERG current change (%, negative = inhibition) at 1uM” value is listed as 10.9%. For `CN(Cc1ccccc1)S(=O)(=O)c1cn(C)cn1` the value was 2.56%; for `COc1cc(NC(=O)c2ccccc2)c(OC)cc1NC(=O)Cc1cccs1`, 13.3%. For `COC(=O)c1cnn2c1C(=O)N(Cc1cccs1)CC2` the value was 20%; for `Cc1c(C(=O)N2CCC3(CC2)OCCO3)sc2ncnc(N3CCc4ccccc4C3)c12`, 9.24%. As for `C[C@@H]1C(=O)O[C@H]2C[C@@]34[C@H]5C[C@@H](C(C)(C)C)[C@]36[C@@H](OC(=O)[C@@H]6O)O[C@@]4(C(=O)O5)[C@]21O`, the figure is 16.5%; as for `Cc1occc1-c1nnc(SCC(=O)Nc2nc(C(C)(C)C)cs2)o1`, 2.65%; as for `COCCn1c(=NC(=O)c2cccs2)sc2cc(NC(C)=O)ccc21`, 0.283%. With `Cc1noc(C)c1S(=O)(=O)Nc1ccc(C(=O)N2CCCCC2)cc1`, the “hERG current change (%, negative = inhibition) at 1uM” value is listed as 1.06%. As for `Cc1ccc(NC(=O)OCc2cn(-c3ccc(Cl)cc3)nn2)cc1`, the figure is -9.31%.

Consider `COc1ccc(C(C)NC(=O)c2ccncc2)cc1` (stereo not drawn), for which the “hERG current change (%, negative = inhibition) at 1uM” value was 10.8%. For the compound `COc1ccc(NC(=O)C(NC(=O)c2ccc(C)cc2)c2ccccc2)cc1` (stereo not drawn), the “hERG current change (%, negative = inhibition) at 1uM” value is on record as 15.3%. For `Cc1ccccc1NC(=O)c1ccccc1NC(=O)Cc1cccc2ccccc12` the value was 15.1%; for `Cc1c(NC(=O)CSc2nnc3sc4ccccc4n23)c(=O)n(-c2ccccc2)n1C`, 10.3%; for `O=C(O)c1ccc(Cl)cc1NC(=O)C1CCCO1` (stereo not drawn), -0.265%. For `CCOC(=O)C1CCCN(C/C=C/c2ccccc2)C1` (stereo not drawn) the value was 9.81%; for `CCOC(=O)Cc1csc(NC(=O)c2c(-c3ccccc3)noc2C)n1`, 1.56%.
